Reference: the supplement of paper PMC9446081
The campaign covered roughly 39,000 compounds. About 220 (0.56%) showed activity. The list shows a part of the results.
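Further: static incubation at 37 °C against the wild-type strain, values averaged over two biological replicates.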

The molecules below were run on Escherichia coli K-12 BW25113 (assay: relative growth (OD600 normalised to plate interquartile mean) (fraction); higher = less growth inhibition, active = 0.2 or less). Conditions: 50 µM; LB; incubation time: overnight (16-24 h).
For `C[C@@H]1CN([C@@H](C)CO)C(=O)c2cc(NS(=O)(=O)c3cn(C)cn3)ccc2O[C@@H](C)CCCCO[C@H]1CN(C)C`, the relative growth was inactive: 0.955.
`C[C@H](CO)N1C[C@H](C)[C@H](CN(C)Cc2ccc(-c3ccccc3)cc2)Oc2c(NC(=O)c3ccncc3)cccc2C1=O` was tested, and the relative growth was inactive: 0.998.
In the case of `COC1C(OC(N)=O)C(O)C(Oc2ccc3c([O-])c(NC(=O)c4ccc(O)c(CC=C(C)C)c4)c(=O)oc3c2C)OC1(C)C.[Na+]` (centres undefined), the relative growth is reported as inactive: 0.701.
In the case of `CO[C@@H](CN(C)C(=O)Nc1ccc(C(F)(F)F)cc1)[C@H](C)CN(Cc1ccccc1Cl)[C@@H](C)CO`, the relative growth is reported as inactive: 1.01.
In the case of `Cn1cc(N)cn1`, the relative growth is reported as inactive: 0.989.
With `C[C@@H]1CCCCO[C@@H](CN(C)C(=O)NC2CCCCC2)[C@@H](C)CN([C@@H](C)CO)C(=O)c2cc(NC(=O)Nc3ccc(C(F)(F)F)cc3)ccc2O1` the relative growth was inactive: 1.01.
In the case of `CNC[C@@H]1OCCCC[C@@H](C)Oc2ccc(NS(=O)(=O)c3c(C)noc3C)cc2C(=O)N([C@@H](C)CO)C[C@H]1C`, the relative growth is reported as inactive: 1.03.
With `C[C@@H]1CCCCO[C@@H](CN(C)C(=O)Nc2ccccc2)[C@@H](C)CN([C@H](C)CO)C(=O)c2cc(NC(=O)Nc3cccc4ccccc34)ccc2O1` the relative growth was inactive: 1.02.
`NCc1cc(-c2ccccc2Cl)on1` was tested, and the relative growth was inactive: 0.971.
With `Cc1noc(C)c1S(=O)(=O)Nc1ccc2c(c1)C(=O)N([C@H](C)CO)C[C@H](C)[C@@H](CN(C)C(=O)Nc1ccccc1)OCCCC[C@@H](C)O2` the relative growth was inactive: 0.941.
For `COC(=O)C1(C)CCCC2(C)c3ccc(C(C)C)cc3C(=O)CC12` (centres undefined), the relative growth was inactive: 1.12.
With `COc1ccc([Si](C)(C)[C@H]2[C@H](CC(=O)N3Cc4ccccc4C[C@H]3CO)O[C@@]3(C(=O)N(Cc4ccc(N5CCC5=O)cc4)c4ccccc43)[C@@H]2C)cc1` the relative growth was inactive: 1.02.
For `Cc1ccc(S(=O)(=O)N(C)C[C@@H]2Oc3c(NS(=O)(=O)c4cccs4)cccc3C(=O)N([C@H](C)CO)C[C@H]2C)cc1`, the relative growth was inactive: 1.02.
For `C[C@@H]1CN([C@H](C)CO)C(=O)c2cccc(NC(=O)NC3CCCCC3)c2O[C@@H]1CN(C)C(=O)Nc1cccc2ccccc12`, the relative growth was inactive: 0.977.
In the case of `Cc1noc(C)c1NC(=O)N(C)C[C@H]1OCCCC[C@H](C)Oc2ccc(NC(=O)C3CCCCC3)cc2C(=O)N([C@H](C)CO)C[C@@H]1C`, the relative growth is reported as inactive: 0.978.
`C=CCOC(=O)[C@@H]1[C@H]2C(=O)O[C@H](c3ccccc3)[C@H](c3ccccc3)N2[C@H](c2ccc(OCCOC(=O)[C@@H]3C[C@@H]4C(=O)N[C@@H](CCCC[N+](C)(C)C)C(=O)N4[C@@H]3c3cccc(OCCO)c3)cc2)[C@@]12C(=O)Nc1ccccc12` was tested, and the relative growth was inactive: 0.994.
With `Cc1noc(C)c1NC(=O)N(C)C[C@@H]1Oc2ccc(NC(=O)Nc3cccc4ccccc34)cc2C(=O)N([C@H](C)CO)C[C@H]1C` the relative growth was inactive: 1.02.
In the case of `COc1ccc(S(=O)(=O)N(C)C[C@H]2OCCCC[C@H](C)Oc3ccc(NC(=O)Nc4ccc(C(F)(F)F)cc4)cc3C(=O)N([C@@H](C)CO)C[C@@H]2C)cc1`, the relative growth is reported as inactive: 1.02.
In the case of `C[C@@H]1CN([C@@H](C)CO)C(=O)c2cccc(NC(=O)Nc3ccccc3)c2O[C@H]1CN(C)Cc1ccc(Oc2ccccc2)cc1`, the relative growth is reported as inactive: 0.961.
With `CN1C(=O)c2cc(NC(=O)c3cccs3)ccc2OC[C@@H]2O[C@H](CC(=O)NCC(F)(F)F)CC[C@H]21` the relative growth was inactive: 0.975.
`C[C@@H]1CN([C@@H](C)CO)C(=O)c2cc(NC(=O)CCCCCC(=O)Nc3ccccc3N)ccc2O[C@H]1CN(C)C(=O)Nc1cccc2ccccc12` was tested, and the relative growth was inactive: 0.966.
With `C[C@H]1CN([C@@H](C)CO)C(=O)CCCn2cc(nn2)CO[C@@H]1CN(C)S(=O)(=O)c1ccc(C#N)cc1` the relative growth was inactive: 0.982.
For `COc1ccc(-c2cnc3c(c2)C(=O)N([C@H](C)CO)C[C@@H](C)[C@@H](CN(C)C(=O)Cc2ccncc2)O3)cc1`, the relative growth was inactive: 1.04.
In the case of `C[C@@H]1CCCCO[C@@H](CN(C)S(=O)(=O)c2cn(C)cn2)[C@H](C)CN([C@@H](C)CO)C(=O)c2cc(NC(=O)c3ccncc3)ccc2O1`, the relative growth is reported as inactive: 0.985.
For `C[C@@H]1CN([C@@H](C)CO)C(=O)Cc2cc(NS(=O)(=O)c3ccc(F)cc3)ccc2O[C@@H]1CN(C)S(C)(=O)=O`, the relative growth was inactive: 1.
With `O=C(C[C@@H]1CC[C@H]2[C@@H](COC[C@H](O)CN2S(=O)(=O)c2ccc(F)cc2)O1)N[C@@H]1CCN(Cc2ccccc2)C1` the relative growth was inactive: 1.01.
In the case of `Nc1ccc(-n2nn[nH]c2=S)cc1`, the relative growth is reported as inactive: 0.951.
In the case of `C[C@H]1CN([C@@H](C)CO)S(=O)(=O)c2ccc(C#CC3(O)CCCC3)cc2O[C@H]1CN(C)C(=O)Cc1ccncc1`, the relative growth is reported as inactive: 1.02.
`C[C@@H]1CN([C@@H](C)CO)C(=O)Cc2cc(NC(=O)CCC(F)(F)F)ccc2O[C@@H]1CN(C)S(C)(=O)=O` was tested, and the relative growth was inactive: 0.979.
In the case of `C=CCN(Cc1ccccc1)C(=O)[C@@H]1N(c2c(Cl)cccc2CO)C(=O)[C@@H]2[C@H](C(=O)O)[C@@H]3C=C[C@@]21O3`, the relative growth is reported as inactive: 1.02.
For `O=C(O)CCCCCCC(=O)O`, the relative growth was inactive: 1.02.
With `COc1ccc(NC(=O)N(C)C[C@@H]2Oc3ccc(NC(=O)Nc4cccc5ccccc45)cc3CC(=O)N([C@@H](C)CO)C[C@H]2C)cc1` the relative growth was inactive: 1.
With `CC(C)CC#Cc1ccc2c(c1)O[C@H](CN(C)C(=O)Cc1cccnc1)[C@H](C)CN([C@H](C)CO)S2(=O)=O` the relative growth was inactive: 0.945.
With `CN1CCN(C(=O)C[C@@H]2C=C[C@H](NC(=O)Cc3ccccn3)[C@H](CO)O2)CC1` the relative growth was inactive: 1.02.
In the case of `O=C(C[C@H]1CC[C@H](NS(=O)(=O)c2ccccc2)[C@@H](CO)O1)NCc1ccncn1`, the relative growth is reported as inactive: 1.
`C[C@@H]1CCCCO[C@@H](CN(C)CC2CCCCC2)[C@H](C)CN([C@H](C)CO)C(=O)c2cc(NS(=O)(=O)c3cccs3)ccc2O1` was tested, and the relative growth was inactive: 0.989.
`C[C@@H]1CN([C@@H](C)CO)C(=O)c2cc(NC(=O)Cc3ccccc3)ccc2O[C@@H](C)CCCCO[C@@H]1CN(C)Cc1ccc(C(F)(F)F)cc1` was tested, and the relative growth was inactive: 1.04.
For `Cc1ccc(S(=O)(=O)Nc2ccc3c(c2)CC(=O)N([C@H](C)CO)C[C@@H](C)[C@@H](CN(C)Cc2ccc(C(F)(F)F)cc2)O3)cc1`, the relative growth was inactive: 0.968.
With `Nn1c([C@@H](O)c2ccccc2)n[nH]c1=S` the relative growth was inactive: 0.981.
In the case of `C[C@H](CO)N1C[C@H](C)[C@H](CN(C)S(=O)(=O)c2cn(C)cn2)Oc2c(NC(=O)c3cnccn3)cccc2C1=O`, the relative growth is reported as inactive: 0.962.
With `C[C@@H]1CN([C@@H](C)CO)C(=O)c2cc(N(C)C)ccc2O[C@@H](C)CCCCO[C@@H]1CN(C)C(=O)Nc1ccc(C(F)(F)F)cc1` the relative growth was inactive: 0.928.
In the case of `C[C@@H]1CN([C@H](C)CO)C(=O)c2cc(NS(=O)(=O)c3ccccc3)ccc2O[C@@H](C)CCCCO[C@H]1CN(C)C(=O)NC1CCCCC1`, the relative growth is reported as inactive: 0.991.
`COc1ccc(S(=O)(=O)N(C)C[C@H]2Oc3ccc(NC(=O)c4ccncc4)cc3CC(=O)N([C@@H](C)CO)C[C@@H]2C)cc1` was tested, and the relative growth was inactive: 1.03.
For `Cc1ccc(S(=O)(=O)N(C)C[C@@H]2Oc3ccc(NC(=O)Cn4cnnn4)cc3CC(=O)N([C@@H](C)CO)C[C@@H]2C)cc1`, the relative growth was inactive: 0.991.
For `CC1(C)[C@H](C(=O)O)N2C(=O)C[C@H]2S1(=O)=O`, the relative growth was inactive: 0.486.
For `CC(C)NC(=O)Nc1cccc2c1O[C@H](CN(C)S(=O)(=O)c1cn(C)cn1)[C@H](C)CN([C@H](C)CO)C2=O`, the relative growth was inactive: 1.
For `C[C@H](CO)N1C[C@H](C)[C@@H](CN(C)S(=O)(=O)c2ccccc2C#N)OCc2cn(nn2)CCCC1=O`, the relative growth was inactive: 1.
For `CCCNC(=O)N1C[C@@H]2[C@H](c3ccccc31)[C@@H](CO)N2C(=O)CN1CCOCC1`, the relative growth was inactive: 0.997.
With `Cc1nc2c(cc1C(=O)NN)c(=O)n(C)c(=O)n2C` the relative growth was inactive: 1.01.
For `Cc1noc(C)c1NC(=O)Nc1ccc2c(c1)C(=O)N([C@@H](C)CO)C[C@@H](C)[C@@H](CN(C)Cc1ccc(C(F)(F)F)cc1)O2`, the relative growth was inactive: 0.999.
With `CCOC(=O)N(C)C[C@H]1OCc2cn(nn2)CCCC(=O)N([C@H](C)CO)C[C@@H]1C` the relative growth was inactive: 1.03.
In the case of `C[C@@H]1CN([C@H](C)CO)C(=O)c2cc(NC(=O)Nc3cccc4ccccc34)ccc2O[C@@H]1CN(C)Cc1ccc(C(=O)Nc2ccccc2N)cc1`, the relative growth is reported as inactive: 1.03.
`CCOC(=O)CCCCCC(=O)Nc1ccc2c(c1)C(=O)N([C@@H](C)CO)C[C@H](C)[C@H](CN(C)S(C)(=O)=O)O2` was tested, and the relative growth was inactive: 0.979.
For `C[C@@H]1CN([C@@H](C)CO)C(=O)c2cc(NC(=O)Nc3ccc(C(F)(F)F)cc3)ccc2O[C@@H](C)CCCCO[C@@H]1CN(C)CC1CCCCC1`, the relative growth was inactive: 1.01.
In the case of `C[C@@H]1CN([C@H](C)CO)C(=O)c2cc(NC(=O)c3ccncc3)ccc2O[C@@H]1CN(C)Cc1ccc(C(=O)O)cc1`, the relative growth is reported as inactive: 1.04.
With `CNC[C@H]1Oc2c(NS(=O)(=O)c3cn(C)cn3)cccc2C(=O)N([C@@H](C)CO)C[C@H]1C` the relative growth was inactive: 1.02.
With `C[C@@H](N)c1nc2c(s1)CCCC2` the relative growth was inactive: 0.962.
With `C[C@@H]1CCCCO[C@H](CN(C)C(=O)Nc2ccc(C(F)(F)F)cc2)[C@H](C)CN([C@H](C)CO)C(=O)c2cc(NS(=O)(=O)c3ccccc3)ccc2O1` the relative growth was inactive: 0.989.
For `C[C@@H]1CN([C@@H](C)CO)C(=O)c2cc(NC(=O)Nc3ccc4c(c3)OCO4)ccc2O[C@@H](C)CCCCO[C@@H]1CN(C)CC1CCCCC1`, the relative growth was inactive: 1.07.
